Assay results published in PMC7819943, “Rice protein-binding microarrays: a tool to detect cis-acting elements near promoter regions in rice”.
The other results are listed elsewhere or left out.

Molecular target: T1, OsWOX13 (Oryza sativa, UniProt Q5QMM3 1-267)
T1 sequence: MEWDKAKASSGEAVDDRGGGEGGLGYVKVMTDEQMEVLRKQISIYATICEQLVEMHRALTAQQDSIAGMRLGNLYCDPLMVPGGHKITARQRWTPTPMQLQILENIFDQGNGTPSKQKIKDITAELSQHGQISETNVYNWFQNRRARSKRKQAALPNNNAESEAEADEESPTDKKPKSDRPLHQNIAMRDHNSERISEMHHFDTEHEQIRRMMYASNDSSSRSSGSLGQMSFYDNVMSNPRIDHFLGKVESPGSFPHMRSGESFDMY
Assay: protein-binding microarray (RPBM); PBS, 2% BSA, 51.3 ng/ul salmon testes DNA, 50 uM zinc acetate, 200 nM TF, 25 C, 1 h; high values mean tight binding
Details: protein: recombinant; tags: N-terminal polyhistidine and DsRed monomer fusion (pET32a); label: CyDye5-dUTP incorporated in the synthesized complementary strand; 3' TTTTT single-stranded linker to array surface; dsDNA, one strand shown
Outline: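 Binding signal here means per-feature fluorescence intensity in arbitrary units. The values were read on an Axon 4000B scanner after a custom Agilent array, double-stranded by primer extension with Cy5-dUTP, was incubated with 200 nM protein at 25 °C for 1 h in PBS with 2% BSA, salmon testes DNA and 50 µM zinc acetate, then washed. The proteins were transcription factors with an N-terminal polyhistidine tag and DsRed, expressed in E. coli BL21-CodonPlus and purified on Ni–NTA.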

**Q.** How did the binding signal turn out when “ATAATGTTATCCCTAATCACTGTATTAGTAAATTACCGATCGGAGTCACCTAGTGCAG” was run?
**A.** 7820 fluorescence intensity (a.u.)

**Q.** With “CAGAAATGATTAAAATCTTGGCAGGATACAGGTGTTTTCTCGGAGTCACCTAGTGCAG” as the sequence, how does the binding signal read?
**A.** 17100 fluorescence intensity (a.u.)

**Q.** “TTGACTGAATTTAGGGGCAGAAGGTTTTGTGGTTGATGGACGGAGTCACCTAGTGCAG” was tested. Which binding signal did it give?
**A.** 9600 fluorescence intensity (a.u.)

**Q.** “AAACTCACATTTGATTGCAATTTGCTGCAACGTGTACAGTCGGAGTCACCTAGTGCAG” was tested. Which binding signal did it give?
**A.** 17700 fluorescence intensity (a.u.)

**Q.** For “ATATGCAGATATAATAAATTAATTAAATATAGCAGGAGGACGGAGTCACCTAGTGCAG”, which binding signal is on record?
**A.** 11500 fluorescence intensity (a.u.)

**Q.** With “GTTAACATCACAGTTTAATCGGAATGCCAAATTAGTATATCGGAGTCACCTAGTGCAG” as the sequence, how does the binding signal read?
**A.** 3300 fluorescence intensity (a.u.)

**Q.** For “AATTCAATTTAAAATATTTTAAGCTAATACTTAATTAATCCGGAGTCACCTAGTGCAG”, which binding signal is on record?
**A.** 10600 fluorescence intensity (a.u.)

**Q.** With “TTTCAATTATCAACATACTCTTGCGCACATAACCTAGATGCGGAGTCACCTAGTGCAG” as the sequence, how does the binding signal read?
**A.** 10500 fluorescence intensity (a.u.)

**Q.** Which binding signal does the source give for “AATCTCAAATTATTAGTTTAATTATAAATTTAAAACAATTCGGAGTCACCTAGTGCAG” here?
**A.** 10900 fluorescence intensity (a.u.)

**Q.** How did the binding signal turn out when “AATAATTATCACAAATCCAACTGTTTAGCAATTTAACACACGGAGTCACCTAGTGCAG” was run?
**A.** 23800 fluorescence intensity (a.u.)

**Q.** For “TTTGTTTTCTACTTAATTGACCATACTCCAGTCCTACTCCCGGAGTCACCTAGTGCAG”, which binding signal is on record?
**A.** 11800 fluorescence intensity (a.u.)

**Q.** How did the binding signal turn out when “GTGTTTAATTATATCGACTTTAATTACCTCTCACAAACCACGGAGTCACCTAGTGCAG” was run?
**A.** 23600 fluorescence intensity (a.u.)

**Q.** “TATAAGTGACAGATCCGAGACGTGGTTCTCGATCCGACGACGGAGTCACCTAGTGCAG” was tested. Which binding signal did it give?
**A.** 3690 fluorescence intensity (a.u.)

**Q.** Which binding signal does the source give for “CATCTAATTTAAATTTAAATGTTTTAAAAGATAGAGACGTCGGAGTCACCTAGTGCAG” here?
**A.** 52400 fluorescence intensity (a.u.)

**Q.** With “CCATTGATTTTAGATGCAACTAATCAAACACTTATCCATGCGGAGTCACCTAGTGCAG” as the sequence, how does the binding signal read?
**A.** 30300 fluorescence intensity (a.u.)

**Q.** “GGTTAATTTTAGCAGTAATCTGAACATGCCCGAAGTCAACCGGAGTCACCTAGTGCAG” was tested. Which binding signal did it give?
**A.** 8970 fluorescence intensity (a.u.)

**Q.** Which binding signal does the source give for “CTCCAACTACTGATTAGCACTCTCTCCACTCGCTTGCAAACGGAGTCACCTAGTGCAG” here?
**A.** 14500 fluorescence intensity (a.u.)

**Q.** “TTTGATTTGCATTCTTCGACCGCAAAACTTGGTACAAGACCGGAGTCACCTAGTGCAG” was tested. Which binding signal did it give?
**A.** 29000 fluorescence intensity (a.u.)

**Q.** Which binding signal does the source give for “TCAAATTCGTACATAGAAATTAATTTATTTTGGATGGAGGCGGAGTCACCTAGTGCAG” here?
**A.** 8240 fluorescence intensity (a.u.)

**Q.** Which binding signal does the source give for “CATTTATAGCCAATTTAATAGCCAACTCATACAATAGTTGCGGAGTCACCTAGTGCAG” here?
**A.** 4060 fluorescence intensity (a.u.)

**Q.** How did the binding signal turn out when “ACATTCCAAATAAATCAATCTACGTGATACTTCCTGATACCGGAGTCACCTAGTGCAG” was run?
**A.** 4190 fluorescence intensity (a.u.)

**Q.** Which binding signal does the source give for “CCTAATTGGAAAGGTTCAATGTTCTCTCTGAGTGGTAGGCCGGAGTCACCTAGTGCAG” here?
**A.** 42000 fluorescence intensity (a.u.)

**Q.** “GTTGATTTTAGGACCTTTTATCATAGTTTATTTTCCAATCCGGAGTCACCTAGTGCAG” was tested. Which binding signal did it give?
**A.** 9410 fluorescence intensity (a.u.)

**Q.** For “AATCCTCTTAATTATTATTAGCGGTTCGTCCTATGATCTTCGGAGTCACCTAGTGCAG”, which binding signal is on record?
**A.** 7080 fluorescence intensity (a.u.)

**Q.** Which binding signal does the source give for “GGATTAATAGAATAATCGTACCAACAAGTTGCAACTTCTTCGGAGTCACCTAGTGCAG” here?
**A.** 4540 fluorescence intensity (a.u.)

**Q.** For “CTCTCTCCTTGGCCTCTTCCTCCCTGGTCGGTAGCGCAGCCGGAGTCACCTAGTGCAG”, which binding signal is on record?
**A.** 59600 fluorescence intensity (a.u.)

**Q.** “TTCCTTTGATTGATCATGAGGTGGGCTGGGGCTGAGATGGCGGAGTCACCTAGTGCAG” was tested. Which binding signal did it give?
**A.** 59400 fluorescence intensity (a.u.)

**Q.** Which binding signal does the source give for “CAGCCGGATTGATTGCGTAGCTGTGTGCAAGGCTGGGCGACGGAGTCACCTAGTGCAG” here?
**A.** 35900 fluorescence intensity (a.u.)

**Q.** Which binding signal does the source give for “TTGATACTTAATTAATCATGTTGTTTTGTGTGCCCGGGGACGGAGTCACCTAGTGCAG” here?
**A.** 16600 fluorescence intensity (a.u.)

**Q.** For “TTGCTGATTGTGAATGGTGGGTGCAAGGATACACTTTTCGCGGAGTCACCTAGTGCAG”, which binding signal is on record?
**A.** 23900 fluorescence intensity (a.u.)

**Q.** With “GTCTCAATCTAGTCATTCGTCCTGCTGGTGAGTTGATGTACGGAGTCACCTAGTGCAG” as the sequence, how does the binding signal read?
**A.** 4610 fluorescence intensity (a.u.)

**Q.** How did the binding signal turn out when “ATAATCTAGATTATAATAATCCTATGCTGAACCAAACAGGCGGAGTCACCTAGTGCAG” was run?
**A.** 10900 fluorescence intensity (a.u.)

**Q.** With “ATAAAATCACAAGAGTAAATTTGGGGCATAAGATTTTATTCGGAGTCACCTAGTGCAG” as the sequence, how does the binding signal read?
**A.** 4400 fluorescence intensity (a.u.)

**Q.** Which binding signal does the source give for “ACTGATGACTATGCTAGTGCCTACTAGTAACCAGTATACTCGGAGTCACCTAGTGCAG” here?
**A.** 3790 fluorescence intensity (a.u.)

**Q.** “TTATTAGATGATGATTATTTTGAGAAGGTTTCTTAGGATGCGGAGTCACCTAGTGCAG” was tested. Which binding signal did it give?
**A.** 12900 fluorescence intensity (a.u.)

**Q.** With “CGTAAACATCTGATGAGTACCTCACATGTTGAACATCTCCCGGAGTCACCTAGTGCAG” as the sequence, how does the binding signal read?
**A.** 3900 fluorescence intensity (a.u.)

**Q.** With “GACCTTTGGGTAGGGGTGGGGATGGGGCGAAATTACTAAACGGAGTCACCTAGTGCAG” as the sequence, how does the binding signal read?
**A.** 6190 fluorescence intensity (a.u.)

**Q.** For “TTCTACTAATCAGTCAAATAGGGCTCAATATGGATTAGTTCGGAGTCACCTAGTGCAG”, which binding signal is on record?
**A.** 4540 fluorescence intensity (a.u.)

**Q.** Which binding signal does the source give for “ATTACATTGATAGCCTTTATGCAGTAAATTTGGCCAGCCTCGGAGTCACCTAGTGCAG” here?
**A.** 10100 fluorescence intensity (a.u.)

**Q.** How did the binding signal turn out when “AACAGTTCTGCTGAACCTCTTTTGCCTGCCCAAATCAAAACGGAGTCACCTAGTGCAG” was run?
**A.** 7650 fluorescence intensity (a.u.)

**Q.** “GTTGATCAAAGTTTTAAATTTTAACCAAATGTTGTCATAACGGAGTCACCTAGTGCAG” was tested. Which binding signal did it give?
**A.** 7850 fluorescence intensity (a.u.)

**Q.** How did the binding signal turn out when “GGTAGATTAGATTAAGAGTAAACTGACTATATCTTAAACTCGGAGTCACCTAGTGCAG” was run?
**A.** 28800 fluorescence intensity (a.u.)
